# Test results: the supplement of paper PMC11417369
# ± gives the standard deviation of the averaged measurements. The list shows a part of the results.
# Test system: PfAP2-G AP2 domain (GST-tagged)
# Assay: gcPBM binding intensity (ln(normalized median fluorescence intensity)); higher = stronger DNA binding
# In short: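 GST-fused DNA-binding domains of P. falciparum, expressed in E. coli, were applied at about 25 μg on average for 1 h to an Agilent 4 × 180k array of primer-extended double-stranded 36-bp intergenic genomic probes and negative controls. Binding intensity is the highest Masliner-normalised natural-log median intensity across replicate spots of either probe orientation, measured with Alexa488 anti-GST antibody and a 488 nm scan.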
row,Sequence,gcPBM binding intensity (ln)
1,AAAGAATTTGCATATACACACAAAAAAATAAATACA [CACACA_site4373],10.2
2,TACACAGACGGACACACACACACACTAGAAAAAAAA [CACACA_site4435],11.7 ± 1.2
3,ATATATATATACATATGTACATATATATTTATACAT [XGTACX_site2463],11 ± 0.58
4,AGTATAAATATATTATGTACATATATATTATACTTA [XGTACX_site2623],11.2 ± 0.59
5,TTATATACATTAAATGAACACACATAAATAAATTAC [CACACA_site8927],10.1 ± 0.11
6,AATATAATATAATGCACACATAAAAAAAAAAAAATC [CACACA_site1303],10.2 ± 0.43
7,AATGCACTATTTAAAAGTACACATAAGAAAAGCATA [XGTACX_site1739],11.5 ± 0.96
8,GCTAAACAATAGTTTGCACACAATTTAAATATATAT [CACACA_site193],10.03 ± 0.071
9,AAATTATTATATATATGTACGTATAATGTATTTTGT [XGTACX_site2903],11.5 ± 1.1
10,AAATATAGAATACATGTGCACATAATATATATATAT,10.5 ± 0.28
11,TTTTTTGTATTTTTCACACACACATAAGTAAACAAT [CACACA_site1900],10.4 ± 0.35
12,TATTATGTATGTATATGTACGTATCTTATTTTATTT [XGTACX_site5008],11.3 ± 0.76
13,AATACAATTTATAACACACACACAAGAATACCTATA [CACACA_site6705],10.2 ± 0.11
14,TCTTTTTAAGGGATTTTTTTTTTTTTTTTAAAAAGA [CACACA_negctrl_site1274],10 ± 0.27
15,TTTGTATCTATATATTGTACGAATTACTTTCATTTA [XGTACX_site4785],11.1 ± 0.5
16,AAAAAAAAAAATTAAAGTACAAAAATATTAAAAATA [XGTACX_site6517],11 ± 0.51
17,AAATGTAAATTTATCCGTACATATATATATTTATAT [XGTACX_site7024],11 ± 0.68
18,AAAAAAAAAAAAATATATATATATATATATATATAT [GTGCAC_negctrl_site212],9.76 ± 0.54
19,AAAAAAAATTTCTTCACACATAAATAAATAAATAAA [CACACA_site4841],9.7 ± 0.014
20,ATAAACATGGAAATGTATTAAAAGCAAGTATATAAA [XGTACX_negctrl_site516],10.105 ± 0.007
21,TGTTGTTACAGATATACACACATATATATATTATAT [CACACA_site5342],10.1 ± 0.15
22,TTGGGTGCATATATTTGTACACATTATTTCTATTTT [XGTACX_site3688],11.4 ± 1
23,TAAATTATAACGTGCACACATATTTAAAATGAAATG [CACACA_site2820],10.6 ± 0.45

row,Sequence,gcPBM binding intensity (ln)
1,ATTAAAAATTCAATTGCACACGCACATATTTTAATA [CACACA_site8618],10.1 ± 0.23
2,ATGTAATAAAATAATTGTACAATGTAACTAATTTTT [XGTACX_site2871],10.8 ± 0.44
3,ATATGTATATATACATGTACATATTTTTCCTTTCTT [XGTACX_site149],11.2 ± 0.75
4,TGCATTTATATCTTCACACATATATATATATATATA [CACACA_site4516],10 ± 0.26
5,ACATAAATAAATTAATGTACATATATATTTGTATAT [XGTACX_site3160],11.1 ± 0.56
6,TATATATATATATATACACACACACCCATATATATA [CACACA_site8812],10.5 ± 0.79
7,TTTTTATATGTTAAGTGTACGTTTACATTTTATACT [XGTACX_site3485],11.6 ± 1.1
8,TTTTTTTTTTTTTCAAGTACATATATATATATATAA [XGTACX_site2098],11 ± 0.77
9,CATATATTTTGAAACACACACATATATAATATACAT [CACACA_site1158],10.1 ± 0.13
10,ATGATACTAAAAAATTGTACATATAACAAAAGGTAT [XGTACX_site2527],11.1 ± 0.65
11,AGAACTAAAAGAACATGTACATAAATTCTAAATAAT [XGTACX_site4084],11.2 ± 0.7
12,TTTGTATAATACATGTGTACGTATTTTTATATAAAT [XGTACX_site8656],11.6 ± 0.95
13,TTATCATTATATAGTTGTACATATTTATTTATAAAA [XGTACX_site2310],11.5 ± 0.86
14,TATTTTGTTTTAAAAGTACACACTTTTAATTAGATT [CACACA_site1180],11.5 ± 1
15,ATATTTAAGGCGTGTATGCACACGACTATTCCGTAT [CACACA_site1080],10.2 ± 0.15
16,TTAATTTGTTCTTACACACACATATAAATATATTTA [CACACA_site6676],10.11 ± 0.071
17,ATAACAAAATGAAGAGTGCATTACCAAGTGGGTAAA [GTGCAC_site9450],10.1 ± 0.13
18,TACCTATATAGACACACACACATATATTTATTTATA [CACACA_site6728],10.1 ± 0.13
19,ATATGTACAAGTGTTTATGCTGAACGGAAATCCTGT [CACACA_negctrl_site1372],11 ± 0.65
20,ATTATTATATATGTATGTACTTATATAATATATATA [XGTACX_site5198],11.2 ± 0.75
21,TATATATTGTTATATACACACATGTATTTAAAAAAT [CACACA_site5737],10.2 ± 0.39
22,TTAACAAAACATAAGGTGCTTAAAATTTTATATCAC [GTGCAC_site9839],9.84 ± 0.042
23,TCTGTTAAACAAAAAAGTACTAAAATAATGTAAAAT [XGTACX_site6826],11.2 ± 0.6

row,Sequence,gcPBM binding intensity (ln)
1,TATAAACATAATATTTAACACACATGAAGATGTATA [CACACA_site8252],9.91 ± 0.13
2,AATATATATACTATAACACACATACACCCAAAAAAA [CACACA_site4453],10.4 ± 0.26
3,TTATATGGATATACAGTGCATATATACATATAAGTG,10.1 ± 0.14
4,AAAAAAAAAAGAAACACACACATATATATATAGAAT [CACACA_site1777],9.65 ± 0.22
5,CATACCTTTTAATGTACACACATTTCTTTTTTGTTA [CACACA_site892],11.3 ± 0.72
6,TATATGTATTTGTATACACACAAATGTATATATTTA [CACACA_site1265],9.97 ± 0.18
7,ATGTATTAAAATTTATGTACTTATATATAAATATAT [XGTACX_site1025],11.2 ± 0.88
8,ATATGATCATACTGTGCATGTTAATGCAAATTTTAT [TGCATGCA_site984],10 ± 0.11
9,TACATATATTATACATGTACACATTTATACATATCG [XGTACX_site2866],11.4 ± 0.88
10,AAAAAAAAAAAAAAAACACACATTTAGCAATCTACA [CACACA_site3706],10.4 ± 0.11
11,TTTTTTTTTATATAAAAAAAAATTTTTATTATTTTA [GTGCAC_negctrl_site347],9.42 ± 0.14
12,CGCACAGACGGACACACACACACATATATATATATA [CACACA_site5249],11.5 ± 1.1
13,ATAATTGTCCATTTTTTCTTTTTTTTTTTCTTTTTA [CACACA_negctrl_site928],10.6 ± 0.21
14,TTCTCCTAATAGTTAGTGCACTACATAACTAAGAAA,10.7 ± 0.57
15,ATATTATACCCGTGTACACATTATAACCATATATAA [CACACA_site5933],11.7 ± 0.82
16,TAAAATTAATTTCTGTTGCACTTATTATTAATTAAC,10.1 ± 0.13
17,TTTTTTTTTTTTTGCACACACCATATTTATAGAAAT [CACACA_site5772],10.2 ± 0.38
18,TATATGTATAGAAAATGTACATATAAATATATATAT [XGTACX_site3420],11 ± 0.67
19,TTTTATGTAACATCACGTACTTATATTTAAGTATTC [XGTACX_site7459],11 ± 0.3
20,CAAGCACACGGACACACACACACACGCGCACGCACA [CACACA_site6307],11.3 ± 0.85
21,CAATTTATTTTTATTACACACTATCCAAGTAATTTC [CACACA_site7402],10.09 ± 0.071
22,GTCATATTAATATGTACACACATATTTATATTTATA [CACACA_site6798],11.3 ± 0.9
23,TTTTTACTATTTATATGACTAAAAATATATTGAATA [CACACA_negctrl_site188],10 ± 0.24

row,Sequence,gcPBM binding intensity (ln)
1,TAAATTAATAAACAAGTGCATATATATATATATATA,10.3 ± 0.69
2,TAATTTTTCCAACTTTGTACAGATATATTAATAAAA [XGTACX_site7856],10.7 ± 0.43
3,TCTTTTAAATAACAACATAAATAAATAAATAAATAA [GTGCAC_negctrl_site319],9.56 ± 0.11
4,GTTGATACATGAAGCTGTACATAATATTTGTCATTT [XGTACX_site8628],11 ± 0.57
5,AAATATATCATACAAAGTACTTGGAATTAATATATA [XGTACX_site8907],10.9 ± 0.67
6,AATATAATATAATGCACACATAAAACAAAAAAAAAA [CACACA_site3012],10.2 ± 0.4
7,AAAAAAAAAATATCATGTACAAATATAATAAAATTT [XGTACX_site3896],10.7 ± 0.36
8,CCTTTATTTTATATGTGTACTAAATTGTATATATAT [XGTACX_site8717],11.3 ± 0.77
9,ATGTTTTATAAAAGGCGTACACATATGCTTAAGTAA [XGTACX_site6232],11.8 ± 0.94
10,CTGAAGGAAAAAGAAAGTACTTTTTTTTTTTTGAAG [XGTACX_site5973],11.2 ± 0.59
11,GGCATTTTATGAAGTAGTACCATAAATATTAAAGAT [XGTACX_site5287],11.3 ± 0.84
12,TATAGCAAAAAATTTACACACATGTTTTTTCTATAC [CACACA_site325],9.91 ± 0.11
13,AATTAAAATAGTAATACACACTTCATAGGAAATGAT [CACACA_site5045],9.83 ± 0.014
14,TATGTATCAAATAAATGTACATATATATATATATAT [XGTACX_site2189],11 ± 0.61
15,AATAATAAAATAAAGGCATGCACAATATGCTATAAA [TGCATGCA_site645],9.8 ± 0.16
16,TAAAATATATAAAACTGTACATTTTAAAGGCACAAC [XGTACX_site8342],11 ± 0.66
17,AAATTTTTTATGAACACACAAATACACGCACTCAAA [CACACA_site7286],10.8 ± 0.4
18,TTTTTATTTAATAGTTGTACATTGAAAAATATGTAT [XGTACX_site3025],11.3 ± 0.85
19,TATATATATATATATGTGCACTGGACATATTTTTAT [GTGCAC_site9721],10.7 ± 0.58
20,GCTCTATCAAAAAAATGTACACATATTATCATTCAT [XGTACX_site143],11.3 ± 0.76
21,CAAATAAATATTAAAAGTACACACAGATACACTAAT [XGTACX_site3749],11.4 ± 0.86
